Experimental data reported in PMC4336329 (PLoS ONE, 2015).
About 14,000 (4.5%) of roughly 310,000 compounds showed an effect of 50% or more. The effect is printed as a negative number. This is one part of the list.

The compounds below were run against human ether-à-go-go-related gene (hERG) potassium channel (human, UniProt Q12809) (assay: primary screen, population patch clamp on CHO cells stably expressing hERG).
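Note: peak tail current of the secondary pulse compared with the same well before compound.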

Sequence of human ether-à-go-go-related gene (hERG) potassium channel (Q12809 whole entry, looked up): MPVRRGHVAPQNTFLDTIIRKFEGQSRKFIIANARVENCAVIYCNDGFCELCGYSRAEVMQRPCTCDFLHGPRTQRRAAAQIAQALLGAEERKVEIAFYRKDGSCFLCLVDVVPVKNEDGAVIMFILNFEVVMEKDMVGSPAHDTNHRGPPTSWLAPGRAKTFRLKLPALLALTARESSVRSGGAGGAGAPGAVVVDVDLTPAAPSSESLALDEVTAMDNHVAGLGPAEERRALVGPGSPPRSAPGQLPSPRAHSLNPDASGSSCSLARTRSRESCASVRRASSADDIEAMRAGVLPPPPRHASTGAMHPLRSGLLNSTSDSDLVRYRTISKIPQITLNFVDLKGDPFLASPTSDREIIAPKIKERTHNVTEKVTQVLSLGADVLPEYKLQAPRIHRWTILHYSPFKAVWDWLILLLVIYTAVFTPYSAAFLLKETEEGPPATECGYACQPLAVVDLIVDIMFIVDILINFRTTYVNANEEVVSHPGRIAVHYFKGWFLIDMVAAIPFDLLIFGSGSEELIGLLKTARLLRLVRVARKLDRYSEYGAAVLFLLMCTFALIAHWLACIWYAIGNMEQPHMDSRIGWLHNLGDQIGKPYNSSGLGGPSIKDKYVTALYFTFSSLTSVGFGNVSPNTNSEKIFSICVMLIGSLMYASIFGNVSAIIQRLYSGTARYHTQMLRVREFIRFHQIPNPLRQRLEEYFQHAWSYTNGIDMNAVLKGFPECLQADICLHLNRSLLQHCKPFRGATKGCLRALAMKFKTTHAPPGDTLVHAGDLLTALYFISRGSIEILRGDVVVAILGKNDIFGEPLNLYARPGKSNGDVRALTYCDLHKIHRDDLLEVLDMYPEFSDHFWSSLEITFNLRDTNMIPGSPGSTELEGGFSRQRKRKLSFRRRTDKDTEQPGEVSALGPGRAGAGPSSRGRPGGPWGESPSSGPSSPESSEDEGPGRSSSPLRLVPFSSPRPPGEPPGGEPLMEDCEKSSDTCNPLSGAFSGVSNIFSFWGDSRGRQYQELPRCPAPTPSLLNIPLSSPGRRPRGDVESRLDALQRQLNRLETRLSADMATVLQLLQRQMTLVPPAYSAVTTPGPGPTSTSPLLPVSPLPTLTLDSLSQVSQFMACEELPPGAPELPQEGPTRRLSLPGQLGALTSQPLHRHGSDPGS

| Compound | hERG current change (%, negative = inhibition) at 10uM |
| --- | --- |
| CCNC(=O)CSc1nnc(-c2cc(-c3ccc(Cl)cc3)nc3ccccc23)o1 | -82.3% |
| N#CCOC(=O)/C=C/c1ccc2c(c1)OCO2 | 7.2% |
| COCCN1CC(C(=O)NCc2ncccc2C)CCC1=O (centres unmarked) | 22.6% |
| CCCCC(=O)Nc1ccc(C(=O)NCCN2CCOCC2)cc1 | 8.09% |
| COc1ccc(CNC(=O)CN(Cc2ccc(C)cc2)S(=O)(=O)c2ccc(Cl)cc2)cc1 | -50.9% |
| C=CCn1c(=O)c2c(nc3n2CCCN3CCc2ccccc2)n(C)c1=O | -19.8% |
| COc1ccc(CCn2c(N)c(C(=O)NCc3ccco3)c3nc4ccccc4nc32)cc1 | 0.65% |
| CN(C)S(=O)(=O)Oc1ccccc1C(=O)Nc1cccc(C(F)(F)F)c1 | -22.5% |
| O=S(=O)(c1ccc(Br)s1)N1CCN(c2ccccc2)CC1 | 2.15% |
| COc1cc(NC(=O)c2cc([N+](=O)[O-])ccc2Br)ccc1NC(=O)c1ccco1 | 13.2% |
| Cc1ccc(-c2ccc(=O)n(CC(=O)NCC3COCCO3)n2)cc1 (centres unmarked) | 23% |
| CCCCn1c(N)c(N2CCOCC2)c(=O)n(CC(=O)NCCc2ccccc2)c1=O | 17.6% |
| COc1cc(/C=N/NC(=O)c2c(-c3ccccc3)noc2C)cc(OC)c1OC | -46.5% |
| COc1cc(/C(C)=N/NC(=O)CSc2nnc(C)s2)ccc1O | 3.91% |
| CC(C)c1nnc(NC(=O)CCCCCN2C(=O)C3C4C=CC(C4)C3C2=O)s1 (centres unmarked) | -20.3% |
| CC(=O)Nc1ccc(S(=O)(=O)N(C)CC(=O)OCC(=O)N2CCCC2=O)cc1 | -2.45% |
| O=C(CN1C(=O)COc2ccc(S(=O)(=O)N3CCCCC3)cc21)NCc1ccc(Cl)cc1 | 18.3% |
| Cc1ccc(NC(=O)Nc2ccc3c(c2)nc(C)n3C)cc1 | -0.433% |
| O=C(NCc1ccccc1C(F)(F)F)C1CC(c2ccc(C(F)(F)F)cc2)=NO1 (centres unmarked) | 2.97% |

| Compound | hERG current change (%, negative = inhibition) at 10uM |
| --- | --- |
| CC(C)C(=O)NC(=S)Nc1ccccc1N1CCN(C(=O)c2ccccc2)CC1 | 11.6% |
| Cn1ccnc1Sc1ccccc1[N+](=O)[O-] | 16.3% |
| COc1ccc(S(=O)(=O)Nc2ccccc2C(=O)N2CCOCC2)cc1Br | -1.62% |
| CCOC(=O)c1sc(NC(=O)c2ccncc2)nc1C | -3.04% |
| COc1ccc(NC(=O)C(CC(C)C)NC(=O)C2CCC(C)CC2)cc1 (centres unmarked) | 10.1% |
| COc1ccc(CCNC(=O)CSc2ccccn2)cc1 | 1.38% |
| Cc1nc2c(c3c1[nH]c1ccccc13)C(=O)CC(C)(C)C2 | -0.41% |
| CC(C)N(C(=O)CSc1nc(Cc2ccccc2)nc2ccccc12)C(C)C | 2.86% |
| CCOc1ccc(C2CC(c3cccc(C)c3)n3ncnc3N2)cc1 (centres unmarked) | -45.5% |
| CC(=O)NC1=NN(C(C)=O)C(C)(CS(=O)(=O)c2ccc(C)c(C)c2)S1 (centres unmarked) | 5.82% |
| Cc1ccc(C)c(NC(=O)NCCN2CCCCC2)c1 | -15.1% |
| CCOC(=O)C(NC(C)=O)(Nc1cccc(F)c1)C(F)(F)F (centres unmarked) | 7.74% |
| Cc1ccc(-c2csc(NC(=O)c3ccccc3Cl)c2C(=O)O)cc1 | 20.8% |
| CCCCN(C(=O)c1cc(-c2ccco2)nc2ccccc12)c1c(N)n(CCCC)c(=O)[nH]c1=O | 2.18% |
| CCOC(=O)C1(Cc2ccccc2C)CCCN(C(=O)CN2CCCCC2=O)C1 (centres unmarked) | 14.8% |
| COc1ccc(Oc2nc(-c3ccccc3)ncc2C(=O)O)cc1 | 10.9% |
| CCCN(CCC)S(=O)(=O)c1ccc(C(=O)N2CC3CCC(CC3)C2)cc1 | 11.9% |
| O=c1c2c(-c3ccccc3)csc2nc2n1CCC2 | 14.5% |
| FC(F)(F)c1ccccc1NC1=NCCC1 | 0.577% |

| Compound | hERG current change (%, negative = inhibition) at 10uM |
| --- | --- |
| O=C(Nc1ccccc1NC(=O)c1c(F)c(F)c(F)c(F)c1F)c1c(F)c(F)c(F)c(F)c1F | -0.695% |
| CC(OC(=O)C1CCCC1)C(=O)Nc1ccc(C(N)=O)cc1 (centres unmarked) | 11.5% |
| Cc1ccc(N2CC(C(=O)OCc3ccccc3)CC2=O)cc1 (centres unmarked) | -15.6% |
| NC(=S)N/N=C1\CCOc2ccc(Cl)cc21 | 1.36% |
| CCOC(=O)c1c(S(=O)(=O)N2CCCC(C(=O)Nc3ncccc3C)C2)c(C)n(C)c1C (centres unmarked) | 15.6% |
| CC1=NN(C(=O)c2csc(C)c2C)C(O)(C(F)(F)F)C1 (centres unmarked) | 0.00158% |
| Cc1ccc(C(=O)N/N=C/c2sc(=O)n(Cc3cccc(C(=O)O)c3)c2Cl)cc1 | 7.4% |
| CC1CCCN(CC(=O)Nc2cc(Cl)ccc2Oc2ccccc2)C1 (centres unmarked) | 14.3% |
| COc1ccc(S(=O)(=O)N2CCCCCC2)cc1NC(=O)CC1OC(=O)c2ccccc21 (centres unmarked) | -23.1% |
| O=C1/C(=C/c2ccco2)CCC1C1CCCC1 (centres unmarked) | 19.6% |
| O=C(CSc1nc2ccccc2[nH]1)Nc1nc(-c2cccc(Br)c2)cs1 | 14.3% |
| CNC(=O)C1=NCCCc2cc(OC)c(OC)cc21 | -9.41% |
| COc1ccccc1CNC(=O)C1CC(c2cccc([N+](=O)[O-])c2)=NO1 (centres unmarked) | -30.6% |
| C=CCn1c(SCC(=O)c2ccc(Br)cc2)nnc1C(C)NC(=O)Cc1ccc(OC)cc1 (centres unmarked) | -7.55% |
| COc1ccc(CCNC(=O)COC(=O)c2ccc(F)c(S(=O)(=O)N3CCOCC3)c2)cc1 | -28.5% |
| CC1=C(C#N)C(=O)N(C2CCS(=O)(=O)C2)C(=O)/C1=C\c1ccco1 (centres unmarked) | 7.81% |
| C/C(=N\NC(=O)C(O)(c1ccccc1)c1ccccc1)c1ccc(C)o1 | -2.62% |
| Cl.Oc1ccccc1C1NCc2ccccc2-n2cccc21 (centres unmarked) | 12.6% |
